Reference: PubChem BioAssay AID1508642 (National Center for Advancing Translational Sciences (NCATS), 2021)
Among all 43,000 compounds or so, about 200 (0.47%) were called active. Roughly 12% stayed inconclusive and do not appear here. The call rests on the fitted dose curve; in most records, active means well fitted cell-killing curve with a large enough effect; inconclusive means small, poorly fitted or top-dose-only effect, or effect the other way; inactive means flat fitted curve, though single readings scatter. Some of the results follow.

assay: Cell viability qHTS assay in S16 Pmp22-F2sN cells; details: S16 Pmp22-F2sN Schwann cells viability, CellTiter-Glo, 24 h; series mostly up to 57.5 µM; activity change, negative = cytotoxicity: at the top concentration; further: nearly all actives have a fitted effect of over 65% in size
Method in brief: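 Used to flag compounds lowering reporter output through toxicity, this quantitative HTS measures ATP-based CellTiter-Glo luminescence in S16 Pmp22-F2sN Schwann cells after 24 h compound exposure at 37C.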
On the % scale 0 is the no-effect control and ±100 the full control effect.

SMILES | activity change, negative = cytotoxicity
CSc1nc(=O)c2c(n1C)NC(=O)CC2c1ccccc1OC(C)C (centres undefined) | inactive: -2.01%
O=C(Cc1ccccc1)Nc1sc2c(c1C(=O)Nc1ccccc1)CCCCC2 | inactive: -12.3%
COc1cc(C2CC(=O)Nc3c2c(C)nn3-c2nc(C)cc(C)n2)cc(OC)c1O (centres undefined) | inactive: -1.78%
COc1cccc(-c2nn3c(=O)cc(CN4CCN(S(=O)(=O)c5ccc(C)cc5)CC4)nc3s2)c1 | inactive: 15.1%
Cc1ccc(CSc2nnc(-n3c(=O)c(C#N)cc4c(=O)n5cccc(C)c5nc43)s2)cc1 | inactive: 3.21%
CCN1CCN(C(c2ccc(OC)cc2)c2c(O)cc(C)n(Cc3ccco3)c2=O)CC1 (centres undefined) | inactive: -6.69%
CCN(CC)c1nc2c(-c3cccc(Br)c3)nnn2c2ccccc12 | inactive: 7.46%
COc1cccc(NC(=O)C2CCN(S(=O)(=O)c3cccc4nonc34)CC2)c1 | inactive: -0.361%
COc1cccc(NC(=O)Cn2c(=O)cc(C)c3c(C)nn(-c4cccc(F)c4)c32)c1 | inactive: -10.2%
CC1CCCCN1C(=O)Cn1c(=O)n(-c2ccc(Cl)cc2)c(=O)c2c3c(sc21)CCC3 (centres undefined) | inactive: -1.31%
COc1cc(NS(=O)(=O)c2cnc(N)nc2)cc(OC)c1 | inactive: 2.48%
CCOc1ccc(/C=C/C(=O)Nc2sc3c(c2C(=O)OC)C(C(=O)OC)CC3)cc1 (centres undefined) | inactive: -10%
COC(=O)c1ccc(NC(=O)CSc2nc(C)cc(C)c2C(=O)Nc2ccccc2)cc1 | inactive: 2.49%
COc1ccc(N2CCN(C(=O)c3cccc(-n4c(C)nc5cccnc54)c3)CC2)cc1 | inactive: -17.7%
CCc1cccc(NC(=O)c2cn3c4c(ccc(Cl)c4c2=O)OC(C)C3)c1 (centres undefined) | inactive: -1.11%
CCCNS(=O)(=O)c1ccc2nc(NC(=O)c3ccc(F)cc3)sc2c1 | inactive: 4.57%
O=C(NCCC1=CCCCC1)c1ccc2c(c1)N(Cc1ccccc1F)C(=O)c1ccccc1S2=O (centres undefined) | inactive: -0.758%
CCn1nnc2cc(C(=O)Nc3ccc(Cl)cc3C)ccc21 | inactive: -5.23%
CCc1cccc(-n2c(=O)c3cccnc3n2CC(=O)NCc2ccccc2)c1 | inactive: 4.46%
CCOC(=O)c1cc(C)n(CC2CCC(C(=O)Nc3ccc(C(C)=O)cc3)CC2)c1C (centres undefined) | inactive: -15.4%
CCOc1ccccc1Nc1sc(C(=O)c2ccccc2)c(N)c1C(=O)Nc1ccccc1 | inactive: -29.1%
CCc1ccc(NC(=O)Cn2c(=O)n(CCCCC(=O)NCc3ccc4c(c3)OCO4)c(=O)c3ccccc32)cc1 | inactive: 1.97%
CC(=O)c1cc(-c2ccccc2)n(CCC(=O)NCc2ccc(C)cc2)c1C | inactive: 0.486%
CCOc1ccccc1NC(=O)c1ccc2c(Cl)c3c(nc2c1)CCC3 | inactive: 7.28%

SMILES | activity change, negative = cytotoxicity
CCOc1ccccc1CNc1ccc2cc(S(=O)(=O)N3CCC(C)CC3)ccc2n1 | inactive: -21.4%
COc1ccc(-c2nn3c(=O)cc(CN4CCN(C(=O)c5ccc(OC)c(OC)c5)CC4)nc3s2)cc1 | inactive: 18%
COc1ccc(-c2noc(N(c3nc(-c4ccc(OC)c(OC)c4)no3)c3ccccc3OC)n2)cc1OC | inactive: 0.243%
CC(=O)c1cccc(NC(=O)c2nc(-c3ccccc3)n(-c3cccc(Cl)c3)n2)c1 | inactive: -11%
CCc1ccc(NC(=O)C(=O)NCC(c2cccnc2)N2CCN(c3ccc(F)cc3)CC2)cc1 (centres undefined) | inactive: -16.3%
Cc1ccc(C(=O)Nc2ccc(S(=O)(=O)N3CCC(c4nc5ccccc5s4)CC3)cc2)cc1 | inactive: 8.45%
Cc1ccc(NC(=O)c2nc(S(C)(=O)=O)ncc2N(Cc2ccco2)Cc2cccs2)c(C)c1 | inactive: -19.3%
Cc1ccc(NC(=O)CSc2nc(=O)n(CCN3CCOCC3)c3c2CCC3)c(C)c1 | inactive: -2.96%
Cc1ccc(OCCCCn2nnc3sc4c(c3c2=O)CCCC4)cc1 | inactive: 6.81%
CCCCn1cc(S(=O)(=O)c2ccc(OC)cc2)c(=O)c2cc(CC)ccc21 | inactive: -0.672%
CNC(=O)C1CCC(Cn2c(=O)c3sccc3n(CC(=O)Nc3ccc(C)c(C)c3)c2=O)CC1 (centres undefined) | inactive: -3.21%
O=S(=O)(c1ccccc1)c1nnn2c1nc(NC1CCCCC1)c1sccc12 | inactive: -0.431%
COc1ccc(CCNC(=O)C2CCC(CNS(=O)(=O)c3ccc(C)cc3)CC2)cc1OC (centres undefined) | inactive: 13.4%
Cc1ccc(CN(C(=O)c2ccccc2)c2ccccn2)o1 | inactive: 0.566%
O=C(O)CCCCn1c(SCC(=O)Nc2ccccc2C(F)(F)F)nc2ccsc2c1=O | inactive: 8.32%
Cc1ccc(Cl)cc1NC(=O)Nc1nnc(N(C)Cc2ccccc2)s1 | inactive: -1.35%
Cn1c(=O)c2c(SCC(=O)Nc3ccccc3C(F)(F)F)nc(C3CCCC3)nc2n(C)c1=O | inactive: 3.64%
COc1ccc(-c2cc(C)no2)cc1S(=O)(=O)N1CCc2ccccc21 | inactive: 0.566%
CCCC(O)c1nc2ccccc2n1Cc1ccccc1OC (centres undefined) | inactive: -7.83%
COc1cc(NC(=O)CN2c3ccccc3S(=O)(=O)c3ccccc32)cc(OC)c1 | inactive: 5.09%
Cc1ccc(C(=O)CSc2nc(-c3ccccc3)nc3c2CCCC3)c(C)c1 | inactive: 0.824%
Cc1cccc(C(C)C)c1NC(=O)C1CCCN1S(=O)(=O)c1cccc2nsnc12 (centres undefined) | inactive: -7.62%
COCCNC(=O)CSc1nc(-c2cc(OC)c(OC)c(OC)c2)[nH]c1-c1ccc(Cl)cc1 | inactive: -24.6%
CCOCCCn1c(SCC(=O)OCC)nc2c(sc3ccccc32)c1=O | inactive: -11.3%

SMILES | activity change, negative = cytotoxicity
CCC1CN(C(=O)NCc2ccc(C)cc2)c2ccccc2O1 (centres undefined) | inactive: 3.11%
CC(C)c1ccc(N2C(=O)CS(=O)(=O)C23C(=O)N(Cc2cccc(F)c2)c2ccccc23)cc1 (centres undefined) | inactive: -0.604%
CCOc1ccc(-c2ncnn2-c2sc3c(c2C#N)CCCCC3)cc1 | inactive: -2.15%
CCCCNC(=O)C(Cc1ccccc1)NS(=O)(=O)c1ccc2c(c1)c(=O)n(C)c(=O)n2C (centres undefined) | inactive: -0.865%
CCn1c(=N)c(C(=O)NCc2ccccc2)cc2c(=O)n3cc(C)ccc3nc21 | inactive: 18.2%
Cc1oc(-c2ccc(C(=O)NCc3ccc(Cl)cc3)cc2)nc1CS(=O)(=O)c1ccccc1 | inactive: -11.3%
COc1ccc(Cn2ccc3nc(C)c(C(=O)Nc4cc(C)cc(C)c4)cc3c2=O)cc1 | inactive: 5.88%
Cc1nc2ccccc2c(=O)n1-c1ccc(NC(=O)c2cccc([N+](=O)[O-])c2)cc1 | inactive: 3%
CSc1ncc(C(=O)Nc2c(C)cccc2C)c(-c2ccccc2)n1 | inactive: 2.43%
COc1ccccc1CCNC(=O)c1ccc(-c2nc(CSc3ccc(C)cc3)c(C)o2)cc1 | inactive: -12.7%
Cc1ccc(C)c(NC(=O)c2cc(S(=O)(=O)N3CCCc4ccccc43)ccc2F)c1 | inactive: -5.08%
Cc1cc(C)c(OCC(=O)N(Cc2ccco2)Cc2ccco2)c(C)c1 | inactive: -16.2%
CCCCOc1cccc(C(=O)Nc2cccc(-c3nc4ncccc4o3)c2C)c1 | inactive: -6.2%
CCOC(=O)C1=C(C)NC(=O)NC1c1cn(-c2ccccc2)nc1-c1ccc(OCC)cc1 (centres undefined) | inactive: -3.42%
Cc1ccc(NC(=O)C2CCCN(c3ncnc4onc(-c5ccc(F)cc5)c34)C2)c(Cl)c1 (centres undefined) | inactive: 1.88%
Cc1cccc(N2CCN(C(=O)CN3C(=O)COc4ccc(S(=O)(=O)N5CCCCCC5)cc43)CC2)c1C | inactive: 1.61%
CSc1ncc(C(=O)N2CCN(c3cc(C)ccc3C)CC2)c(C)n1 | inactive: -14.1%
CCC(C)NC(=O)Cn1ccc2cc(S(=O)(=O)N3CCCCC3)ccc21 (centres undefined) | inactive: -0.523%
CCCCCSc1nnc(-c2ccc(Br)cc2)o1 | inactive: -0.966%
Cc1ccc(Cl)cc1-n1c(=O)c2sc3ccccc3c2n(Cc2ccccc2)c1=O | inactive: -0.866%
CCOc1cc(-c2nnc(SCC(=O)NC3CCCC3)nc2-c2ccc(OC)c(OCC)c2)ccc1OC | inactive: -27.2%
CC(C)c1ccc(-c2nc(C(N)=O)c3c(n2)n(-c2ccc4c(c2)OCO4)c(=O)n3C)cc1 | inactive: 16.6%
O=C(Nc1cccc(F)c1)[C@H](CSCc1ccccc1)N1Cc2ccccc2C1=O | inactive: 2.69%
CCOc1ccc(NC(=O)Cn2cc(S(=O)(=O)NC)c(S(=O)(=O)NC)c2)cc1 | inactive: 8.25%

SMILES | activity change, negative = cytotoxicity
COc1ccc(NC(=O)C2CCN(S(=O)(=O)c3ccc4[nH]c5c(c4c3)CCCCC5)CC2)cc1 | inactive: -3.27%
CC(C)CCN1C(=O)c2ccccc2CC1(C)C(=O)NC1CCC(C)CC1 (centres undefined) | inactive: 1.94%
O=C(CSc1nccn1C1CCCC1)Nc1ccc(C(F)(F)F)cc1 | inactive: -19.6%
Cc1ccc(CNC(=O)C2CCN(S(=O)(=O)c3ccc4[nH]c(=O)ccc4c3)CC2)cc1 | inactive: -2.21%
Cc1nc2nc[nH]n2c(=O)c1CCC(=O)Nc1ccc(F)cc1 | inactive: -9.05%
CCC(C)NC(=O)CSc1nc2cc3c(cc2c(=O)n1CCCCCC(=O)NCc1ccc2c(c1)OCO2)OCO3 (centres undefined) | inactive: -2.04%
CCOc1ccc(NC(=O)Cn2c(=O)n(-c3ccccc3)c(=O)c3ccc(C(=O)NCc4ccc5c(c4)OCO5)cc32)cc1 | inactive: -18.5%
Cc1ccccc1S(=O)(=O)Cc1ccc(C(=O)NC2CCC(C)CC2)o1 (centres undefined) | inactive: 1.5%
CC1(C)C(=O)N(CC(=O)Nc2cccc(F)c2)c2ccc(S(=O)(=O)N3CCCCC3)cc21 | inactive: -2.6%
Cc1nn(-c2ccccc2)c2c1N(CC(=O)N1CCN(c3ccc(F)cc3)CC1)C(=O)CS2 | inactive: -14%
COc1cccc2cc(C(=O)Nc3ccc(F)c(F)c3)c(=O)oc12 | inactive: 0.964%
O=C(Cn1c(=O)n(Cc2cccs2)c(=O)c2cccnc21)Nc1ccc(F)cc1 | inactive: -2.84%
Cc1cc(-c2ccc(C)c(S(=O)(=O)NC3CCCCC3)c2)on1 | inactive: -11.3%
CCOc1ccc(-n2ccnc2SCC(=O)Nc2nc3ccc(C)cc3s2)cc1 | inactive: 2.91%
Cc1ccc(C(=O)NC2=NC(c3ccc(C)cc3)CC(=O)N2)cc1 (centres undefined) | inactive: 4.66%
Cc1ccc2c(c1)-c1ncc(C(=O)c3ccccc3O)cc1CO2 | inactive: 8.08%
Cc1cc(C)cc(NC(=O)CSc2nc(-c3ccccc3)c3cc(F)ccc3n2)c1 | inactive: 15.4%
CCCCCOC(=O)CSc1ncnc2sc3c(c12)CCC(C)C3 (centres undefined) | inactive: -0.594%
CC(=O)c1ccc(NC(=O)c2cc3sccc3n2Cc2ccc(F)cc2)cc1 | inactive: 7.81%
Cc1cc(C)cc(NC(=O)c2cc(CN3CCCC3)on2)c1 | inactive: -3.03%
COc1ccccc1CNC(=O)CCC1N=C2c3ccccc3N=C(SCc3ccc(C)cc3C)N2C1=O (centres undefined) | inactive: -23.8%
COc1ccc(NC(=O)CN(c2cc(C)cc(C)c2)S(=O)(=O)c2c(C)noc2C)cc1Cl | inactive: -25.4%
